How the values were obtained:
[1] = tested on: advanced hepatocellular carcinoma; settings: Asia-Pacific patients with advanced HCC, sorafenib arm; cited from earlier work
γH2X = γH2X stain by confocal microscopy; type: cell-based; settings: 12-hour treatment
Description: (§1) Cells treated for the indicated time were fixed and doubly immunofluorescence-stained for γH2X and CtIP with mouse anti-γH2A.X (1:500) (Ser139)(05-636, Merk Millipore) and rabbit anti-CtIP (1:500) (Sc-22838, Santa Cruz) antibodies, coupled with donkey fluorescein-conjugated anti-mouse and TRITC-conjugated anti-rabbit antibodies (Jackson ImmunoResearch, West Grove, Pa.), respectively. The cells doubly labeled were then visualized using a Leica TCS-SP2 confocal scanning microscope equipped with an acousto-optical tunable filter and a Plan-Apochromat oil-immersion objective with a 63×/1.32 numeric aperture (Leica Microsystems, Bensheim, Germany). Images were acquired with Leica TCSNT software.

CtIP [2] = experiment: Subcellular localization of CtIP by confocal microscopy in normal fibroblasts; type: cell-based
Description: CTV-1 was segregated with T acute lymphoblastic leukemia and THP-1, with acute myeloid leukemia, according to their expression profiles (Andersson, 2005); Molt-3 is a T acute lymphoblastic leukemia and MRC-5, normal fetal lung fibroblasts cell line (ATCC CCL 171). J5, LPC and Hep3B are HCC cell lines.
as §1

CtIP [3] = experiment: Subcellular localization of CtIP by confocal microscopy in CTV-1 cells; type: cell-based; settings: 12-hour treatment
Description: as §1

caspase 8 and caspase 9 = experiment: Western blot of caspase cleavage in CTV-1 cells; type: cell-based; settings: CTV-1, 16 hrs after treatment at IC50s
Description: The apoptosis was evidenced with the increased M2 fractions by TUNEL assay (A), and the increased cleavage of caspase 8 and/or 9 by western blot (B).

CTV-1 [4] = experiment: Cell cycle distribution by BrdU assay; settings: CTV-1, 12-hour treatment
CTV-1 [5] = experiment: 50% cell death in three-day growth; type: cell-based; settings: Homo sapiens, 72 h; three-day growth of CTV-1; read-out: final concentration that led to 50% cell death
Method: (§2) Valproic acid (VPA) (Sigma-Aldrich, MO) at 10^−2 M in dimethyl sulfoxide (DMSO), was stocked at −20° C. Fresh dilution of chemicals were prepared before the experiments.
(§3) CTV-1, Molt-3, THP-1, MCR-5, J5, LPC and Hep3B cell lines were obtained from the American Type Culture Collection (Rockville, Md.). CTV-1 and Molt-3 and were grown in RPMI 1640 medium supplemented with 10% fetal bovine serum (FBS); THP-1, MCR5, J5, LPC and Hep3B were grown in Dulbecco's modified Eagle's medium (DMEM, Gibco, Grand Island, N.Y.) supplemented with 10% FBS. All were grown at 37° C. in a humidified atmosphere containing 5% CO2.

Hep3B = experiment: 50% cell death in three-day growth; type: cell-based; settings: Homo sapiens, 72 h; three-day growth of Hep3B; read-out: final concentration that led to 50% cell death
Method: as §2, §3

J5 = experiment: 50% cell death in three-day growth; type: cell-based; settings: 72 h; three-day growth of J5; read-out: final concentration that led to 50% cell death
Method: as §2, §3

PLC = experiment: 50% cell death in three-day growth; type: cell-based; settings: 72 h; three-day growth of PLC; read-out: final concentration that led to 50% cell death
Method: as §2, §3

SMILES: CNC(=O)c1cc(Oc2ccc(NC(=O)Nc3ccc(Cl)c(C(F)(F)F)c3)cc2)ccn1 [sorafenib]
- median overall survival [1]: 6.5 months

SMILES: O=C(CCCCCCC(=O)Nc1ccccc1)NO [SAHA, Suberoylanilide hydroxamic acid]
- DNA break revealed by γH2X stain (γH2X): occurred
- nuclear entry of CtIP (CtIP [2]): not in Normal Fibroblasts
- nuclear entry of CtIP (CtIP [3]): Restrained CtIP from Entering Nuclei
- cleaved fractions of caspase 8 and caspase 9 (caspase 8 and caspase 9): increased
- effect on cell cycle populations (in words) (CTV-1 [4]): decreased CTV-1 cells in G0G1 cycle arrest with increase in S phase

SMILES: COc1cccc2c1C(=O)c1c(O)c3c(c(O)c1C2=O)C[C@@](O)(C(=O)CO)C[C@@H]3O[C@H]1C[C@H](N)[C@H](O)[C@H](C)O1 [Doxo, Doxorubicin]
- IC50 (CTV-1 [5]): 0.09 µM

SMILES: CCCC(CCC)C(=O)O [VPA, Valproic acid]
- IC50 (Hep3B): 38.9 µM
- IC50 (J5): 28.7 µM
- IC50 (PLC): 26.7 µM
